Test results from the antibiotic and cytotoxicity screens of Wong et al. (2023).
This is one part of the list.

Tested on: HSkMC (human skeletal muscle cells)
Test: cytotoxicity call (relative viability < 0.9)
Conditions: 10 µM

Structure (SMILES)	cytotoxicity call
COc1ccccc1NC(=O)N(C)C[C@H]1Oc2ncc(C#CCN(C)C)cc2C(=O)N([C@@H](C)CO)C[C@@H]1C	inactive
Cc1noc(C)c1S(=O)(=O)N(C)C[C@H]1Oc2ccc(NS(=O)(=O)c3ccc(F)cc3)cc2CC(=O)N([C@H](C)CO)C[C@H]1C	inactive
CC=Cc1ccc2n(c1=O)C[C@H]1[C@H](CO)[C@@H](C(=O)NC3CCC3)[C@@H]2N1S(=O)(=O)c1cn(C)cn1	inactive
COc1cccc(S(=O)(=O)N(C)C[C@@H]2Oc3ncc(C#CCN(C)C)cc3C(=O)N([C@@H](C)CO)C[C@@H]2C)c1	inactive
Nc1ccn(C2CSC(CO)O2)c(=O)n1 (stereo unspecified)	inactive
c1ccc(-c2nc(C34CC5CC(CC(C5)C3)C4)cs2)cc1	inactive
COc1ccc(S(=O)(=O)N(C)C[C@H]2Oc3cc(C#CC4CC4)ccc3S(=O)(=O)N([C@H](C)CO)C[C@@H]2C)cc1	inactive
COc1cc(/C=C/C(=O)OC[C@H]2O[C@@H](O[C@@H]3OC=C[C@H]4[C@H](O)[C@@H]5O[C@]5(CO)[C@@H]34)[C@H](O)[C@@H](O)[C@@H]2O)ccc1O	inactive
Cc1ccc(S(=O)(=O)N(C)C[C@@H]2Oc3ccc(N(C)C)cc3CC(=O)N([C@@H](C)CO)C[C@@H]2C)cc1	inactive
CCCNC(=O)Nc1ccc2c(c1)OC[C@@H](C)N(Cc1ccc(-c3ccccn3)cc1)C[C@H](C)[C@H](OC)CN(C)C2=O	inactive
C[C@@H]1CN([C@H](C)CO)C(=O)c2cc(NC(=O)c3ccncc3)ccc2O[C@@H](C)CCCCO[C@H]1CN(C)Cc1ccccc1	inactive
